# Laboratory results taken from PubChem BioAssay AID1347073 (National Center for Advancing Translational Sciences (NCATS), 2019).
# The campaign covered roughly 45,000 compounds. About 200 (0.44%) were called active. This list was built around the results that the source calls inconclusive (neither active nor inactive); the mix of calls is not that of the screen. Calls follow the shape of the dose curve; as a rule, active = well fitted activation curve with a large enough effect; inconclusive = small, poorly fitted or top-dose-only effect; inactive = no such curve, though single readings can be large or run the other way. A potency beside an inconclusive call is a rough fit, not a confirmed value.
# Experiment: qHTS of TDP-43 Inhibitors: NCGC Sytravon Library Screen; also: nearly all actives have a fitted effect of over 55% in size; as to growth rescue (activation): 0% is about no effect
# Details: yeast TDP-43 toxicity rescue, BacTiter-Glo growth, 24 h; growth rescue (activation): at 46.1 µM (top of the series)
# In short: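 TDP-43-expressing yeast, pregrown in raffinose, seeded at OD600 0.02 in galactose medium with compound for 24 hr at 30 deg C. Growth read by BacTiter-Glo luminescence, so rescue of toxicity appears as activation.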
# Potency is read from the fitted curve at half-maximal effect; tags tell the direction and shape of the fitted curve.
Structure (SMILES),Potency,growth rescue (activation)
CCOc1cc(/C=C2/C(=O)ON=C2C)ccc1OCc1ccccc1,inactive,–
C/C(=N\NC(=O)c1cc2ccccc2cc1O)c1ccccn1,"inconclusive: 3.55 µM [activator, partial curve, poor fit]",–
COc1cccc(OCC(=O)N2CCCc3ccccc32)c1,"inconclusive: 15.8 µM [activator, partial curve, poor fit]",–
CNc1cncc(-c2ccc(OC)cc2)n1,–,inconclusive: 34.6% [activator]
O=C(COC(=O)c1ccc(O)cc1)Nc1cccc(S(=O)(=O)N2CCCCC2)c1,"inconclusive: 35.5 µM [activator, single point]",–
CN1CCN(c2ncnc3c2ncn3[C@H]2CN(C)C[C@@H](CO)O2)CC1,inactive,–
Fc1ccc(NC(=S)NCc2ccccc2Cl)cc1,"inconclusive: 22.4 µM [activator, partial curve, poor fit]",–
COc1ccc(NC(=S)Nc2ccccc2F)c(OC)c1,"inconclusive: 22.4 µM [activator, single point]",–
O=C(C1CCCN(S(=O)(=O)c2ccc(Cl)cc2)C1)N1CCCC1 (stereo not drawn),inactive,–
Cc1noc(C)c1COc1ccc(C(=O)OCC(=O)NC23CC4CC(CC(C4)C2)C3)cc1,"inconclusive: 25.1 µM [activator, single point]",–
COc1ccccc1CNC(=O)CCCn1c(=O)c2cccn2c2ccccc21,"inconclusive: 17.8 µM [activator, partial curve, poor fit]",–
CCc1ccc2c(c1)NC(=O)C2(C)Cc1ccccc1Cl (stereo not drawn),"inconclusive: 22.4 µM [activator, partial curve, poor fit]",–
CC(Cc1cccs1)NC(=O)Nc1ccc(Cl)cc1 (stereo not drawn),"inconclusive: 22.4 µM [activator, partial curve, poor fit]",–
COc1ccc(C(=S)NC2CCCCC2)cc1,"inconclusive: 12.6 µM [activator, partial curve, poor fit]",–
O/N=C/c1ccccc1OCc1ccccc1F,"inconclusive: 14.1 µM [activator, partial curve, poor fit]",–
Cc1cccc(N2CCN(C(=O)CC(NC(=O)c3ccccc3Cl)c3ccccc3)CC2)c1C (stereo not drawn),"inconclusive: 12.6 µM [activator, partial curve]",–
Clc1ccc2c(N/N=C/c3ccc(Br)cc3)ccnc2c1,"inconclusive: 15.8 µM [activator, single point]",–
O=C(NCc1ccccc1)C1Cc2c(-c3ccc(Cl)cc3)ccnc2O1 (stereo not drawn),"inconclusive: 22.4 µM [activator, single point]",–
N#CN(Cc1ccccc1)Cc1ccccc1,"inconclusive: 35.5 µM [activator, single point]",–
O=C(NC(=S)Nc1cccnc1Cl)c1ccc(Cl)cc1,"inconclusive: 10 µM [activator, partial curve, poor fit]",–
S=C(c1ccc(-c2ccccc2Cl)o1)N1CCCCC1,"inconclusive: 20 µM [activator, single point]",–
Cc1cc2ccccn2c1C(=S)NC(=O)c1ccccc1,"inconclusive: 12.6 µM [activator, partial curve, poor fit]",–
O=C(COC(=O)c1c(F)cccc1Cl)NCC1CCCCC1,"inconclusive: 15.8 µM [activator, partial curve, poor fit]",–

Structure (SMILES),Potency,growth rescue (activation)
S=c1[nH]nc(C2CCCCC2)n1/N=C/c1ccccc1Br,"inconclusive: 14.1 µM [activator, single point]",–
CCOC(=O)/C(=N\Nc1cc(Cl)ccc1Cl)N1CCN(CC)CC1,inactive,–
O=C(O)CC/C(=C\c1cc2c(cc1Br)OCO2)c1nc2ccccc2s1,inactive,–
CCc1nnc(N/N=C/c2ccc(N3CCC(C)CC3)c([N+](=O)[O-])c2)n1N,"inconclusive: 12.6 µM [activator, partial curve, poor fit]",–
COc1ccc(NC(=O)C/C(C)=N/NC(=O)c2cccs2)c([N+](=O)[O-])c1,inactive,–
CC1CC(C)CN(C(=O)C2CCCN(c3ncnc4c3nc3n4CCCCC3)C2)C1 (stereo not drawn),"inconclusive: 35.5 µM [activator, single point]",–
CCN(C(=O)COC(=O)c1ccc(O)cc1)c1cccc2ccccc12,"inconclusive: 35.5 µM [activator, partial curve, poor fit]",–
COc1ccc(-n2nc([N+](=O)[O-])c(=NCCc3ccc(C)cc3)n2O)cc1,"inconclusive: 12.6 µM [activator, partial curve, poor fit]",–
CC1CCN(c2oc(-c3ccc(F)cc3)nc2C#N)CC1,"inconclusive: 15.8 µM [activator, single point]",–
CC1CCN(C(=O)c2ccc3c(c2)N(Cc2ccccc2)C(=O)c2ccccc2S3(=O)=O)CC1,inactive,–
COc1cccc(C(=O)/C=C2\NCCc3cc(OC)c(OC)cc32)c1,"inconclusive: 11.2 µM [activator, partial curve, poor fit]",–
COc1cccc(C(=O)N2c3ccc(C)cc3C(C)(c3ccccc3)CC2(C)C)c1 (stereo not drawn),inactive,–
Cc1ccc(OCCOc2ccc(Br)cc2)c([N+](=O)[O-])n1,"inconclusive: 22.4 µM [activator, single point]",–
COC(=O)c1sccc1NC(=O)Nc1cccc(F)c1,"inconclusive: 12.6 µM [activator, partial curve, poor fit]",–
O=C(COC(=O)COc1ccc(Cl)cc1Br)NC1CC1,inactive,–
Cc1cc(C(=O)CSc2ccc(F)cc2)cc(C)c1O,"inconclusive: 31.6 µM [activator, single point]",–
OC(c1ccc(F)cc1)c1ncc(-c2cccc(C(F)(F)F)c2)[nH]1 (stereo not drawn),inactive,–
O=C(Oc1ccc(Br)cc1C(=O)/C=C/c1ccccc1F)c1ccco1,"inconclusive: 15.8 µM [activator, single point]",–
CC(O)CNCCCOc1cccc(Oc2ccccc2)c1 (stereo not drawn),inactive,–
c1ccc(CSc2ncnc3ccccc23)cc1,"inconclusive: 35.5 µM [activator, partial curve, poor fit]",–
CC(C)NCC(O)(c1ccc(Cl)cc1)c1ccc(Cl)cc1,inactive,–
O=C(CCNS(=O)(=O)c1ccccc1F)OCc1ccccc1Cl,"inconclusive: 15.8 µM [activator, partial curve, poor fit]",–
Cc1nc(-c2cccc(NC(=O)COc3ccc(Cl)cc3)c2)cs1,"inconclusive: 17.8 µM [activator, partial curve, poor fit]",–

Structure (SMILES),Potency,growth rescue (activation)
Cc1ccc(OCC(=O)NNC(=S)NC(=O)C(C)(C)C)c(Br)c1,"inconclusive: 3.16 µM [activator, full curve, poor fit]",–
COc1ccc(-n2c(=O)c3ccccc3n(CC(=O)NCC3CCCO3)c2=O)cc1 (stereo not drawn),inactive,–
COc1ccc(-n2c(O)c(C=Nc3ccccc3)c3ccccc3c2=O)cc1OC,"inconclusive: 22.4 µM [activator, single point]",–
CC(C)c1ccc(/C=C/C(=O)NCCC2=CCCCC2)cc1,inactive,–
CN(C)c1ccc(CN(Cc2ccco2)C(=O)c2ccc(F)cc2)cc1,inactive,–
CCCN(Cc1ccccc1)C(=S)Nc1ccc(OC(F)F)cc1,"inconclusive: 14.1 µM [activator, partial curve, poor fit]",–
O=C(Nc1cccc([N+](=O)[O-])c1)ONC1=NCCCCC1,"inconclusive: 35.5 µM [activator, single point]",–
COC(=O)c1c(NC(=O)CC2SC(N)=NC2=O)sc2c1CCC(C(C)(C)C)C2 (stereo not drawn),"inconclusive: 14.1 µM [activator, partial curve, poor fit]",–
CSc1nnc(NC(=O)c2nc(S(=O)(=O)Cc3ccc(C)cc3)ncc2Cl)s1,"inconclusive: 2 µM [activator, partial curve, poor fit]",–
CCn1nnc2cc(C(=O)Nc3ccc(C(=O)OC(C)C)cc3)ccc21,"inconclusive: 31.6 µM [activator, single point]",–
CC(C)NC(=S)N/N=C/c1cc(Br)ccc1O,"inconclusive: 35.5 µM [activator, single point]",–
O=c1[nH]cnc2scc(-c3cccs3)c12,"inconclusive: 35.5 µM [activator, single point]",–
Cc1ccc(C)c(NC(=O)CN(C)C(=O)COc2ccc3ccccc3c2)c1,inactive,–
CCCN(C(=O)COC(=O)c1nc2nccc(C)n2n1)C1CCS(=O)(=O)C1 (stereo not drawn),inactive,–
O=C(N=Nc1c(O)[nH]c2ccc(Br)cc12)c1cc(-c2cccs2)nc2ccccc12,"inconclusive: 12.6 µM [activator, partial curve, poor fit]",–
O=C(Cc1ccc(Cl)c(Cl)c1)Nc1ccccc1N1CCOCC1,"inconclusive: 22.4 µM [activator, single point]",–
O=C(O)c1[nH]c2ccccc2c1-c1ccccc1,"inconclusive: 11.2 µM [activator, partial curve, poor fit]",–
CCNc1nc(Oc2ccc(C(=O)OC)cc2)nc(N(C)C)n1,"inconclusive: 4.47 µM [activator, partial curve, poor fit]",–
CCOC(=O)c1ccccc1NC(=O)COC(=O)C1=COCCO1,"inconclusive: 14.1 µM [activator, partial curve, poor fit]",–
Cc1cc(-c2ccccc2)nc(N/N=C/c2ccccc2)n1,"inconclusive: 12.6 µM [activator, single point]",–
Cc1ccccc1NC(=S)c1nc2ccccc2[nH]1,"inconclusive: 10 µM [activator, partial curve, poor fit]",–
COc1ccc(C(=O)OCc2cc(=O)n3ccsc3n2)cc1F,inactive,–
